Test results from PubChem BioAssay AID686978 (National Center for Advancing Translational Sciences (NCATS), 2013).
About 64,000 (15%) of roughly 420,000 compounds were called active. The shares of active, inactive and inconclusive entries below differ from those in the screen. Calls come from the whole dose curve; as a rule, active = well fitted inhibition curve with a large enough effect; inconclusive = small, poorly fitted or top-dose-only effect; inactive = flat fitted curve, though single readings scatter. Potencies of inconclusive entries are left out as doubtful fits.

Assay: qHTS for Inhibitors of human tyrosyl-DNA phosphodiesterase 1 (TDP1): qHTS in cells in absence of CPT; note: nearly all actives have a fitted effect of over 55% in size
Conditions: DT40 Tdp1-/- hTDP1 cells, no CPT, ATP luminescence, 48 h; activity change, negative = growth inhibition: at 46.2 µM (top of the series)
How it was run: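 Stably hTDP1-transfected Tdp1-null chicken DT40 cells were treated with library compounds minus camptothecin and grown for at least 48 hr at 37 °C, after which cellular ATP was quantified by luminescence.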
% is set by controls: 0 for no effect and ±100 for the full control effect; potency is the fitted concentration of half-maximal effect; tags give direction and shape of the fitted curve.

| SMILES | Potency | activity change, negative = growth inhibition |
| --- | --- | --- |
| CC(C)OC(=O)C(C(=O)C(F)(F)F)c1cc(NS(=O)(=O)c2ccc3c4c(cccc24)C(=O)N3)ccc1O (configuration not stated) | inconclusive [inhibitor, partial curve, poor fit] |  |
| Cc1cccc(-c2nc3ccccc3n2Cc2ccccc2)c1 | active: 5.17 µM |  |
| O=c1c2ccccc2c(-c2ccccc2)nn1-c1ccc(Cl)c(Cl)c1 | inconclusive [inhibitor, partial curve, poor fit] |  |
| Cc1noc(C)c1S(=O)(=O)N(C)C[C@H]1Oc2c(NC(=O)NC3CCCCC3)cccc2C(=O)N([C@H](C)CO)C[C@@H]1C | inconclusive [inhibitor, single point] |  |
| Cc1ccc(/C=C(\C#N)C(=O)N2CCCC2)c(C)c1 | inconclusive [inhibitor, single point] |  |
| O=C1Cc2ccccc2N1c1c(Cl)cccc1Cl | inconclusive [inhibitor, single point] |  |
| COc1ccc(OC)c(-c2csc(NC(=O)C3COc4ccccc4O3)n2)c1 (configuration not stated) | active: 16.4 µM |  |
| O=C(C(=O)N1CCC(c2ccccc2)CC1)c1ccccc1 | inconclusive [inhibitor, single point] |  |
| COc1cc(C)c(CN2CCC(n3nccc3NC(=O)C3CC3)CC2)cc1C |  | inactive: -4.28% |
| COc1ccc2c(Sc3ccc(C)cc3)c(C(=O)NCc3ccc(F)cc3)[nH]c2c1 | inconclusive [inhibitor, partial curve, poor fit] |  |
| COc1ccc(OC)c(Nc2cc(-c3ccccc3)nc(N)n2)c1 | active: 0.731 µM |  |
| CCN(CC(=O)NCc1cccs1)C(=O)c1ccc(S(=O)(=O)N(CC)c2ccccc2)cc1 |  | inactive: -17.5% |
| O=C(COc1ccc2c3c(c(=O)oc2c1)CCC3)NCc1cccnc1 |  | inactive: 18.5% |
| c1ccc(CSc2nnc(-c3sccc3-n3cccc3)o2)cc1 | inconclusive [inhibitor, single point] |  |
| S=C(NCCN1CCOCC1)Nc1ccc(-c2nc3ccccc3[nH]2)cc1 | inconclusive [inhibitor, single point] |  |
| Cn1c(N)c(C(=O)CSc2nc(C3CC3)n(-c3ccccc3)n2)c(=O)n(C)c1=O |  | inconclusive: -36.2% [inhibitor] |
| CCN(C)C1CN(Cc2cn(Cc3cc(C)cc(C)c3)nn2)S(=O)(=O)C1 (configuration not stated) |  | inactive: -22.9% |
| O=c1c2cc(Br)ccc2[nH]c(=S)n1Cc1ccccn1 | inconclusive [inhibitor, single point] |  |
| COc1c(N)c2ccccc2[nH]c1=O |  | inactive: 4.67% |
| O=C1C(C=NCCN2CCOCC2)=C(O)c2ccccc21 |  | inactive: -15.4% |
| O=C(O)c1ccc(NC(=S)NC(=O)c2ccc3ccccc3c2)cc1 |  | inactive: -2.8% |
| Cc1nnsc1Sc1ccccc1C(=O)O |  | inactive: -21.3% |
| C=CCOC(=O)C(=O)/C=C/c1ccc2c(c1)Cc1ccccc1-2 | inconclusive [inhibitor, single point] |  |
| COc1ccccc1N1CCN(CC(=O)Nc2sccc2C#N)CC1 | inconclusive [inhibitor, partial curve, poor fit] |  |

| SMILES | Potency | activity change, negative = growth inhibition |
| --- | --- | --- |
| Cc1ccc(CC2(C)C(=O)Nc3c(Cl)ccc(Cl)c32)cc1 (configuration not stated) | active: 16.4 µM |  |
| CN1CCN(CCCNC(=O)c2cc3c(=O)n(C)c4ccccc4c3s2)CC1 | active: 11.6 µM |  |
| O=C(CCc1nnc(CCCc2ccccc2)o1)N1CCCCCC1 | inconclusive [inhibitor, single point] |  |
| NS(=O)(=O)c1ccc(CCNC(=O)COC(=O)/C=C/c2cc(Br)ccc2F)cc1 | inconclusive [inhibitor, full curve, poor fit] |  |
| O=C(Nc1ccc(Cl)cn1)c1ccccc1SCc1ccccc1 |  | inactive: -15.7% |
| CCOc1ccc(CN(C)C(=O)CN2C(=O)NC(c3ccccc3)(c3ccccc3)C2=O)cc1 | inconclusive [inhibitor, single point] |  |
| Cc1ccc(S(=O)(=O)Nc2cccc3c2O[C@H](CN(C)C(=O)Nc2ccc(C(F)(F)F)cc2)[C@@H](C)CN([C@H](C)CO)C3=O)cc1 | inconclusive [inhibitor, single point] |  |
| CCOc1ccc(C(C(=O)Nc2ccc(F)cc2)N(C(=O)Cn2nnc3ccccc32)C2CC2)cc1 (configuration not stated) |  | inactive: -18.5% |
| CN(Cc1ccccc1)C(c1cc2ccccc2o1)c1nnnn1C(C)(C)C (configuration not stated) | active: 18.4 µM |  |
| CCn1c2ccccc2c2cc(NC(=O)Cc3ccc(S(=O)(=O)N4CCOCC4)s3)ccc21 | inconclusive [inhibitor, single point] |  |
| CCN(CC)C(=O)CC(c1ccc(F)cc1)c1ccco1 (configuration not stated) | inconclusive [inhibitor, single point] |  |
| COc1ccc(NC(=O)CSc2nc(C)cc(C)n2)cc1 |  | inactive: -25.5% |
| O=C(NCc1ccc(F)cc1F)[C@@H]1CCCN1C(=O)[C@@H]1CCCN1C(=O)c1cccc2ccccc12 | inconclusive [inhibitor, single point] |  |
| CCCC(=O)Nc1cc(C(=O)NCc2ccccc2)ccc1S(=O)(=O)c1ccc(Cl)cc1 | active: 20.6 µM |  |
| CCOC(=O)c1ccc(N2C(=O)c3n[nH]c(-c4ccco4)c3C2c2ccc(OCC)cc2)cc1 (configuration not stated) | active: 16.4 µM |  |
| O=C(CSc1nc2c(oc3ccccc32)c(=O)n1-c1ccccc1)Nc1ccccc1F | inconclusive [inhibitor, single point] |  |
| CCCOc1ccc(/C=C/C(=O)O)cc1OC |  | inactive: -6.74% |
| O=C(Nc1cccc(NC(=O)c2ccccc2F)c1)c1ccccc1 | inconclusive [inhibitor, partial curve] |  |
| Cc1cccc(-n2ccnc2CN2CCC(CO)(Cc3ccccc3)CC2)c1 |  | inactive: -7.79% |
| CCN(CC(=O)Nc1ccc([N+](=O)[O-])cc1OC)c1ccccc1 | inconclusive [inhibitor, single point] |  |
| Cc1ccc(S(=O)(=O)N2CCOCC2)cc1NC(=O)CSc1nnc2cc(C)c3ccccc3n12 | active: 23.1 µM |  |
| Cc1ccc(N2C(=O)N(CC(=O)Nc3ccc(F)c(F)c3)C(=O)C2C)cc1 (configuration not stated) |  | inactive: -11.6% |
| CC1CCC/C(=N\NC(=O)c2ccncc2)C1 (configuration not stated) |  | inactive: -18% |
| CC(C)[C@H](NC(=O)c1ccc(Cl)cc1)C(=O)Nc1cccc(S(=O)(=O)N2CCOCC2)c1 |  | inactive: -23.2% |

| SMILES | Potency | activity change, negative = growth inhibition |
| --- | --- | --- |
| O=C1CCCC/C1=C/NCc1ccc(F)cc1 |  | inactive: -17.9% |
| Cc1ccc(-c2csc(NC(=O)c3cccc(C)c3)c2C(=O)O)cc1 | inconclusive [inhibitor, partial curve] |  |
| COc1cc(C(=O)Nc2ccc(C#N)cc2)c([N+](=O)[O-])cc1OC |  | inconclusive: -35.5% [inhibitor] |
| Cc1ccc(CN2CCN(Cc3c(C)nn(-c4ccc(F)cc4)c3C)CC2CCO)o1 (configuration not stated) |  | inactive: -6.67% |
| COc1ccc(CNC(=O)CN(C(=O)c2csnn2)c2ccc(C(C)=O)cc2)cc1 |  | inactive: -9.19% |
| CN(Cc1ccccc1F)C(=O)C(Cc1ccccc1)NC(=O)c1ccccc1 (configuration not stated) | active: 16.4 µM |  |
| COc1ccc(N2C(=O)c3ccccc3NC2c2ccc(OC)c(Cn3cc([N+](=O)[O-])cn3)c2)cc1 (configuration not stated) |  | inconclusive: -32% [inhibitor] |
| CSc1cccc(NC(=O)CN(C2CCCCC2)S(C)(=O)=O)c1 | inconclusive [inhibitor, partial curve] |  |
| Cn1c(Sc2ccccc2Cl)c(C=O)c2ccccc21 | inconclusive [inhibitor, partial curve] |  |
| COCCCNc1nc2c(-c3ccc(C)cc3)nnn2c2ccccc12 |  | inactive: -4.68% |
| COCCN(CCOC)S(=O)(=O)NC[C@H]1O[C@@H](n2cnc3c(N)ncnc32)[C@H](O)[C@@H]1O |  | inactive: -1.26% |
| Cc1cc(C)c2cc(C#N)c(NCCNC(=O)c3ccccc3)nc2c1 | inconclusive [inhibitor, single point] |  |
| CN1CCN(c2ncc3nc(CCc4ccccc4)c(=O)n(C4CC4)c3n2)CC1 | inconclusive [inhibitor, single point] |  |
| Cc1ccnc(NC(=O)c2cccc(S(=O)(=O)N3CCN(c4ccc(F)cc4)CC3)c2)c1 | inconclusive [inhibitor, single point] |  |
| CC(C)n1cc(/C=N\NC(=O)c2cc3c(ccc4ccccc43)o2)c2ccccc21 | inconclusive [inhibitor, single point] |  |
| COc1ccc(CCNC(=O)c2ccc3c(c2)N(Cc2cc(C)ccc2C)C(=O)c2ccccc2S3=O)cc1OC (configuration not stated) | active: 5.8 µM |  |
| CCN1CCN(C(=O)C23CCC(C)(C(=O)C2Br)C3(C)C)CC1 (configuration not stated) | inconclusive [inhibitor, single point] |  |
| Cc1c(N2CCCCC2)[nH]c2ccccc12 | active: 10.3 µM |  |
| CS(=O)(=O)c1ccc(Cl)c(NC(=O)COC(=O)c2ccc(-n3cnnn3)cc2)c1 |  | inactive: -12.8% |
| Cc1cccc(Oc2cc(NC(=O)c3ccccc3)cc([N+](=O)[O-])c2)c1 | inconclusive [inhibitor, single point] |  |
| O=C1C(CCc2ccccc2)ON=C(c2cnccn2)N1Cc1ccc(F)cc1 (configuration not stated) | inconclusive [inhibitor, single point] |  |
| Cc1ccc(CSCC2Nc3ccc(C(=O)N4CCN(c5ccc(F)cc5)CC4)cc3NC2=O)cc1 (configuration not stated) | active: 16.4 µM |  |
| O=C(Nc1ccc(Cl)cn1)c1ccc(COc2ccccc2Br)o1 | inconclusive [inhibitor, single point] |  |
| CCOC(=O)c1ccc(NC(=S)N(CCCN2CCCC2)Cc2ccco2)cc1 | inconclusive [inhibitor, single point] |  |
